Test results: PubChem BioAssay AID588342 (National Center for Advancing Translational Sciences (NCATS), 2011)
Several values for one entry are separate records, joined by “and”; a condition that tells them apart may be missing. Equal values may be shown once. Out of some 360,000 compounds screened, about 25,000 (6.9%) were called active. This list was built around the results that the source calls inconclusive (neither active nor inactive); the mix of calls is not that of the screen. Calls come from the whole dose curve; as a rule, active = well fitted inhibition curve with a large enough effect; inconclusive = small, poorly fitted or top-dose-only effect; inactive = flat fitted curve, though single readings scatter. Potencies of inconclusive entries are doubtful fits and often do not repeat.

What follows are compounds tested against Luciferin 4-monooxygenase (Photinus pyralis) (UniProt P08659) (assay: qHTS profiling assay for firefly luciferase inhibitor/activator using purifed enzyme and Km concentrations of substrates (counterscreen for miR-21 project)). Settings: purified FLuc, luminescence inhibition; series mostly up to 57.5 µM; activity change, negative = inhibition: at the top concentration.
Procedure, shortened: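 Purified P. pyralis luciferase (10nM final) with 10uM D-luciferin and 10uM ATP (Km levels) in 50mM Tris acetate pH 7.5, 10mM Mg acetate, 0.01% Tween-20, 0.05% BSA; qHTS 6-point titration, ~60 µM downward; luminescence read.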
Note: nearly all actives have a fitted effect of over 55% in size.
Potency is the fitted concentration of half-maximal effect; tags give direction and shape of the fitted curve.
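Throughout, for activity change, negative = inhibition: plate controls were vehicle for no effect and reference inhibitor for full effect.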

UniProt P08659, sequence (P08659 whole entry, looked up): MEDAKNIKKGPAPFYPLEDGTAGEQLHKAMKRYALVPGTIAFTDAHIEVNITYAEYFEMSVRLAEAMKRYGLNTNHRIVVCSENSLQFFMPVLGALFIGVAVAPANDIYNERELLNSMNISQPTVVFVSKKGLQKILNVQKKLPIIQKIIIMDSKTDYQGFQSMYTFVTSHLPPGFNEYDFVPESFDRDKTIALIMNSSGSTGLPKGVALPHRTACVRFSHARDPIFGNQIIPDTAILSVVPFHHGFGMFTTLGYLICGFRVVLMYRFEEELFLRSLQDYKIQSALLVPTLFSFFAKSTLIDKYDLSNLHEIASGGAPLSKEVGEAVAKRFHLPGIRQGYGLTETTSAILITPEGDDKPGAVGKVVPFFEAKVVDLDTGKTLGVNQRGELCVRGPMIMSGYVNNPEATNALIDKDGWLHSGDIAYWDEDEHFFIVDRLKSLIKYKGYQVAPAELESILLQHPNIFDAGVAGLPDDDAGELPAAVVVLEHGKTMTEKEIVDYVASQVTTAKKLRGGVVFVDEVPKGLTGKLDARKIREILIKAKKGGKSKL

SMILES	activity change, negative = inhibition	Potency
Cc1cccc(N2CCN(c3ncnc4c3cnn4-c3ccc(Cl)cc3)CC2C)c1 (configuration not stated)	inactive: -1.62%	–
O=C1/C(=C\c2ccc3c(c2)OCO3)CCC/C1=C/c1ccc2c(c1)OCO2	–	inconclusive: 15.1 µM [inhibitor, partial curve]
C=CCn1c(=O)c2ccccc2n2c(SCC(C)=O)nnc12	inactive: 2.23%	–
COc1cc(N=c2c([N+](=O)[O-])nn(-c3ccc4c(c3)OCCO4)n2O)cc(OC)c1	–	inconclusive: 16.9 µM [inhibitor, partial curve]
Cc1cc(Cl)n2ncc(-c3ccccc3)c2n1	–	active: 12 µM
COc1cccc(C(=O)Nc2c3c(nn2-c2ccc(C)cc2C)CS(=O)(=O)C3)c1OC	inactive: 3.59%	–
c1ccc(-c2nnc(-c3ccccn3)nc2NC2CCCCC2)cc1	inactive: -1.69%	–
COc1ccc(Cl)cc1C(=O)NCCc1ccc(S(=O)(=O)NC(=O)NC2CCCCC2)cc1	–	inconclusive: 6.01 µM [inhibitor, partial curve, poor fit]
Cc1nc2oc3ccc(F)cc3c(=O)c2cc1C(=O)O	–	inconclusive: 37.9 µM [inhibitor, single point]
CCn1c(COc2ccccc2C)nnc1SCC(=O)O	inactive: 0.289%	–
CCOC(=O)c1ccc(Nc2nc3ccccc3n3c(C)nnc23)cc1	–	inconclusive: 30.1 µM [inhibitor, partial curve, poor fit]
NC(=O)C1CCN(C(=O)COc2ccc3ccccc3c2Br)CC1	inactive: -19%	–
CCOC(=O)c1cnn(-c2cc(Oc3ccccc3C)ncn2)c1N	–	inconclusive: 37.9 µM [inhibitor, single point]
O=C(Nc1nc(-c2cc(Cl)sc2Cl)cs1)c1cccs1	–	inconclusive: 16.9 µM [inhibitor, partial curve]
O=C(NCC1CCCO1)c1sc2cc(Cl)ccc2c1Cl (configuration not stated)	–	active: 10.7 µM
Nc1ccc(N=Nc2ccc(N)cc2)cc1	–	active: 7.57 µM
CC(=C\c1ccccc1)/C=C1/SC(=S)N(C(C(=O)O)C(C)C)C1=O (configuration not stated)	–	active: 26.9 µM
CCc1nnc(NC(=O)CSc2nc(-c3ccc(F)cc3)cc(-c3ccccc3)c2C#N)s1	–	inconclusive: 26.9 µM [inhibitor, partial curve, poor fit]
Cc1cc(/C=C(/C#N)c2nc3ccccc3[nH]2)c(C)n1-c1cc(C(=O)O)cc(C(=O)O)c1	–	active: 16.9 µM
COc1cc(/C=N/OCC(=O)NC23CC4CC(CC(C4)C2)C3)ccc1OCc1ccccc1	–	active: 15.1 µM
Cc1cccc(N(C)C(=O)c2cc3c(=O)oc4ccc(C)cc4c3s2)c1	inactive: -9.17%	–
Cc1cccc(/C=N/NC(=O)c2ccc(NC(=O)c3ccc(F)cc3)cc2)n1	–	inconclusive: 33.8 µM [inhibitor, partial curve, poor fit]
O=c1oc(Cc2ccccc2)nc2ccccc12	–	inconclusive: 37.9 µM [inhibitor, single point]
COC(=O)c1cccc(NC(=O)c2ccc3c(c2)C(=O)N(Cc2cccnc2)C3=O)c1	–	inconclusive: 23.9 µM [inhibitor, partial curve]

SMILES	activity change, negative = inhibition	Potency
Cc1nonc1OCCCNc1ccc([N+](=O)[O-])cc1Cl	–	inconclusive: 37.9 µM [inhibitor, single point]
COC(=O)Cc1c(C)c2ccc(OCC(C)=O)c(C)c2oc1=O	–	inconclusive: 30.1 µM [inhibitor, partial curve, poor fit]
CC1CN(c2ccc(NC(=S)Nc3ccc(N4CC(C)OC(C)C4)cc3)cc2)CC(C)O1 (configuration not stated)	inactive: -1.28%	–
CC(=O)NCCC(=O)Nc1cc(S(=O)(=O)N2CCOCC2)ccc1Oc1ccc(F)cc1	inactive: 4.3%	–
Cc1ccc(-c2nc3ccccc3[nH]2)cc1NC(=O)c1sc2ccccc2c1Cl	–	inconclusive: 8.49 µM [inhibitor, partial curve, poor fit]
CC1(c2nnc(-c3ccncc3)o2)CC(c2ccc([N+](=O)[O-])cc2)=NO1 (configuration not stated)	inactive: 0.837%	–
Cc1ccc(C)n1-c1ccc(N(C)C)cc1	–	inconclusive: 23.9 µM [inhibitor, partial curve]
Cc1nn(CCC(=O)NNC(=S)NCC(C)C)c(C)c1Br	inactive: 1.26%	–
O=C(COc1ccc2ccccc2c1Br)N1CCN(c2ccccn2)CC1	inactive: -10.4%	–
NS(=O)(=O)c1ccc(CCNC(=O)C2CCCN2S(=O)(=O)c2cccc3nsnc23)cc1 (configuration not stated)	inactive: 1.82%	–
Cc1c(OCc2ccccc2)c(=O)ccn1Cc1ccccc1	–	inconclusive: 37.9 µM [inhibitor, partial curve, poor fit]
COc1ccc(C(=O)NC(C)c2ccccc2)cc1Br (configuration not stated)	inactive: -3.2%	–
COc1ccc(NC(=O)CC(C)S(=O)(=O)c2ccc3c(c2)NC(=O)CO3)cc1OC (configuration not stated)	inactive: 2.25%	–
Cc1ccc(NC(=O)C(c2ccccc2)N(C)C)cc1Cl (configuration not stated)	–	inconclusive: 37.9 µM [inhibitor, single point]
CN(C)C(CNC(=O)C1CCN(C(=O)/C=C/c2ccccc2)CC1)c1ccccc1 (configuration not stated)	–	inconclusive: 23.9 µM [inhibitor, partial curve]
Cc1ccc(O)c(-c2cc(C(=O)Nc3ccc(S(=O)(=O)Nc4nccc(C)n4)cc3)[nH]n2)c1	–	inconclusive: 37.9 µM [inhibitor, single point]
O=C(Nc1ccccc1)C1Cc2ccccc2CN1C(=O)c1ccco1 (configuration not stated)	–	active: 19 µM
COC(=O)c1ccccc1NC(=O)c1cccc(NC(=O)C(C)C)c1	–	inconclusive: 19 µM [inhibitor, single point]
Cc1ccc(-c2csc(NC(=O)c3ccc4c(=O)n5c(nc4c3)CCCCC5)n2)cc1	–	inconclusive: 3.01 µM [inhibitor, partial curve, poor fit]
CCCOc1ccc(C(=O)NCCc2ccccc2)cc1	–	active: 1.07 µM
COc1ccc2oc(=N)c(C(=O)Nc3cccc(C)c3C)cc2c1	–	active: 0.757 µM
Cc1cc(OCC(=O)Nc2nc3c(s2)CCCC3)cc(C)c1Cl	inactive: -10.1%	–
CC(C)(C)C(=O)N1N=C(c2ccc(NS(C)(=O)=O)cc2)CC1c1cccs1 (configuration not stated)	–	inconclusive: 30.1 µM [inhibitor, partial curve, poor fit]
COc1ccc2cnn(CCOc3ccccc3)c(=O)c2c1OC	–	active: 4.78 µM

SMILES	activity change, negative = inhibition	Potency
COc1ccc(NC(=O)O/N=C/c2ccncc2)cc1	–	inconclusive: 26.9 µM [inhibitor, single point]
Cc1cc(=O)n2[nH]c(-c3ccc(C(C)(C)C)cc3)cc2n1	–	active: 9.53 µM and active: 10.7 µM
CCOc1ccc(-n2cc(-c3ccc(OC)c(OC)c3)[nH]c2=S)cc1	–	inconclusive: 9.53 µM [inhibitor, partial curve]
OC(CNc1nc2ccccc2s1)c1ccccc1 (configuration not stated)	–	inconclusive: 16.9 µM [inhibitor, partial curve]
O=C(NCc1ccccc1F)C1CC(=O)N(c2ccc3c(c2)OCCO3)C1 (configuration not stated)	–	inconclusive: 37.9 µM [inhibitor, partial curve, poor fit]
COc1ccc(/C=C2\C(=N)N3N=C(CC(=O)N4CCCCC4)SC3=NC2=O)cc1	–	inconclusive: 37.9 µM [inhibitor, single point]
Cc1ccccc1/C(N)=N/OC(=O)c1ccc(F)cc1	–	active: 1.35 µM
COc1ccc(-c2nc(CNC(=O)NC3CCCCC3)c(C)o2)c(OC)c1	inactive: 1.86%	–
Cc1ccc(Oc2ccc(OCC(=O)NC(C)C(=O)O)cc2)cc1 (configuration not stated)	–	inconclusive: 37.9 µM [inhibitor, partial curve, poor fit]
O=C1CCCc2[nH]c(=O)c(-c3nc(-c4cccc([N+](=O)[O-])c4)cs3)cc21	inactive: -1.21%	–
Cc1ccc(C(=O)NC2CCC(C)CC2)o1 (configuration not stated)	–	inconclusive: 37.9 µM [inhibitor, single point]
Cc1cc(-c2nc(-c3ccncc3)no2)ccc1[N+](=O)[O-]	–	active: 4.78 µM
Cc1cc(C)nc(SCc2nc3ccccc3n2C)n1	–	inconclusive: 37.9 µM [inhibitor, partial curve, poor fit]
CC(C)(C)c1ccc(NC(=O)c2ccsc2)cc1	–	active: 1.07 µM
CCc1ccc(C2c3c(-c4ccccc4)n[nH]c3C(=O)N2c2ccc(C(=O)O)cc2)cc1 (configuration not stated)	–	inconclusive: 13.5 µM [inhibitor, partial curve]
C=CCN1C(=O)/C(=C2/Sc3ccccc3N2CCCS(=O)(=O)O)SC1=S	–	inconclusive: 30.1 µM [inhibitor, single point]
O=C1C=CC(=O)N1c1cccc(-c2ccccc2)c1	–	inconclusive: 13.5 µM [inhibitor, partial curve]
O=C(COc1ccccc1/C=C\c1nc(O)c([N+](=O)[O-])c(=O)[nH]1)Nc1ccccc1	–	inconclusive: 19 µM [inhibitor, partial curve]
O=C(Cc1ccc2c(c1)CCCC2)Nc1ccc2ccccc2c1	–	inconclusive: 12 µM [inhibitor, partial curve, poor fit]
O=C(NCCC1=CCCCC1)C1CCN(S(=O)(=O)c2cccc(C(F)(F)F)c2)CC1	inactive: 3.95%	–
Cc1c(CCC(=O)NCCCCCC(=O)O)c(=O)oc2c(C)c3oc4c(c3cc12)CCCC4	–	inconclusive: 37.9 µM [inhibitor, partial curve, poor fit]
COc1ccc(C2SCCN2C(=S)Nc2ccc(Cl)cc2)cc1 (configuration not stated)	inactive: -13.4%	–
Cc1cc(C)cc(OCCSc2nc(-c3cccs3)nc3cc(=O)[nH]n23)c1	–	inconclusive: 26.9 µM [inhibitor, single point]
CC(=Nc1ccc2c(c1)nc(CO)n2C)C1=C(O)CC(C)(C)CC1=O	–	inconclusive: 26.9 µM [inhibitor, partial curve, poor fit]
